Measurements reported in the supplement of paper PMC8728848.
Some of the results follow.

Tests used:
Assay in all cases: glycan array binding signal (z-score within array); higher = stronger binding
Conditions in all cases: glycan notation: IUPAC condensed, linker removed
[1] = molecular target: Neu5Ac(a2-3)Gal(b1-3)[Neu5Ac(a2-6)]GalNAc
Procedure, shortened: (§1)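 From the Consortium for Functional Glycomics database, 3228 arrays were curated, keeping only those whose protein sequence was available. Binding is given as a within-array Z-score averaged across arrays sharing a protein sequence and across linkers. Negative Z-scores can be read as non-binding.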

[2] = molecular target: Neu5Ac(a2-3)Gal(b1-4)Glc
Procedure, shortened: as §1

[3] = molecular target: Neu5Ac(a2-3)Gal(b1-4)GlcNAc
Procedure, shortened: as §1

[4] = molecular target: Neu5Ac(a2-3)Gal(b1-4)GlcNAc(b1-2)Man(a1-3)[GlcNAc(b1-2)Man(b1-4)GlcNAc(b1-2)Man(a1-6)]Man(b1-4)GlcNAc(b1-4)GlcNAc
Procedure, shortened: as §1

[5] = molecular target: Neu5Ac(a2-3)Gal(b1-4)GlcNAc(b1-2)Man(a1-3)[Neu5Ac(a2-3)Gal(b1-4)GlcNAc(b1-2)Man(a1-6)]Man(b1-4)GlcNAc(b1-4)GlcNAc
Procedure, shortened: as §1

[6] = molecular target: Neu5Ac(a2-3)Gal(b1-4)GlcNAc(b1-2)Man(a1-3)[Neu5Ac(a2-6)Gal(b1-4)GlcNAc(b1-2)Man(a1-6)]Man(b1-4)GlcNAc(b1-4)GlcNAc
Procedure, shortened: as §1

[7] = molecular target: Neu5Ac(a2-3)Gal(b1-4)GlcNAc(b1-3)Gal(b1-3)GlcNAc
Procedure, shortened: as §1

[8] = molecular target: Neu5Ac(a2-3)Gal(b1-4)GlcNAc(b1-3)Gal(b1-4)GlcNAc
Procedure, shortened: as §1

[9] = molecular target: Neu5Ac(a2-3)Gal(b1-4)GlcNAc(b1-3)Gal(b1-4)GlcNAc(b1-3)Gal(b1-4)GlcNAc
Procedure, shortened: as §1

[10] = molecular target: Neu5Ac(a2-3)Gal(b1-4)GlcNAc(b1-3)Gal(b1-4)[Fuc(a1-3)]GlcNAc
Procedure, shortened: as §1

[11] = molecular target: Neu5Ac(a2-3)Gal(b1-4)GlcNAc(b1-6)[Gal(b1-3)]GalNAc
Procedure, shortened: as §1

[12] = molecular target: Neu5Ac(a2-3)Gal(b1-4)GlcNAc(b1-6)[Neu5Ac(a2-3)Gal(b1-3)]GalNAc
Procedure, shortened: as §1

[13] = molecular target: Neu5Ac(a2-3)Gal(b1-4)GlcNAc6S
Procedure, shortened: as §1

[14] = molecular target: Neu5Ac(a2-3)Gal(b1-4)[Fuc(a1-3)]GlcNAc
Procedure, shortened: as §1

[15] = molecular target: Neu5Ac(a2-3)Gal(b1-4)[Fuc(a1-3)]GlcNAc(b1-3)Gal
Procedure, shortened: as §1

[16] = molecular target: Neu5Ac(a2-3)Gal(b1-4)[Fuc(a1-3)]GlcNAc(b1-3)Gal(b1-4)GlcNAc
Procedure, shortened: as §1

[17] = molecular target: Neu5Ac(a2-3)Gal(b1-4)[Fuc(a1-3)]GlcNAc(b1-3)Gal(b1-4)[Fuc(a1-3)]GlcNAc(b1-3)Gal(b1-4)[Fuc(a1-3)]GlcNAc
Procedure, shortened: as §1

[18] = molecular target: Neu5Ac(a2-3)Gal(b1-4)[Fuc(a1-3)]GlcNAc(b1-6)[Gal(b1-3)]GalNAc
Procedure, shortened: as §1

[19] = molecular target: Neu5Ac(a2-3)Gal(b1-4)[Fuc(a1-3)]GlcNAc6S
Procedure, shortened: as §1

[20] = molecular target: Neu5Ac(a2-3)Gal6S(b1-4)GlcNAc
Procedure, shortened: as §1

[21] = molecular target: Neu5Ac(a2-3)Gal6S(b1-4)[Fuc(a1-3)]GlcNAc
Procedure, shortened: as §1

[22] = molecular target: Neu5Ac(a2-3)GalNAc
Procedure, shortened: as §1

[23] = molecular target: Neu5Ac(a2-3)GalNAc(b1-4)GlcNAc
Procedure, shortened: as §1

[24] = molecular target: Neu5Ac(a2-3)[GalNAc(b1-4)]Gal(b1-4)Glc
Procedure, shortened: as §1

[25] = molecular target: Neu5Ac(a2-3)[GalNAc(b1-4)]Gal(b1-4)GlcNAc
Procedure, shortened: as §1

[26] = molecular target: Neu5Ac(a2-3)[Neu5Ac(a2-6)]GalNAc
Procedure, shortened: as §1

[27] = molecular target: Neu5Ac(a2-6)Gal
Procedure, shortened: as §1

[28] = molecular target: Neu5Ac(a2-6)Gal(b1-4)Glc
Procedure, shortened: as §1

[29] = molecular target: Neu5Ac(a2-6)Gal(b1-4)GlcNAc
Procedure, shortened: as §1

[30] = molecular target: Neu5Ac(a2-6)Gal(b1-4)GlcNAc(b1-2)Man(a1-3)[Gal(b1-4)GlcNAc(b1-2)Man(a1-6)]Man(b1-4)GlcNAc(b1-4)GlcNAc
Procedure, shortened: as §1

[31] = molecular target: Neu5Ac(a2-6)Gal(b1-4)GlcNAc(b1-2)Man(a1-3)[GlcNAc(b1-2)Man(a1-6)]Man(b1-4)GlcNAc(b1-4)GlcNAc
Procedure, shortened: as §1

[32] = molecular target: Neu5Ac(a2-6)Gal(b1-4)GlcNAc(b1-2)Man(a1-3)[GlcNAc(b1-2)Man(b1-4)GlcNAc(b1-2)Man(a1-6)]Man(b1-4)GlcNAc(b1-4)GlcNAc
Procedure, shortened: as §1

[33] = molecular target: Neu5Ac(a2-6)Gal(b1-4)GlcNAc(b1-2)Man(a1-3)[Neu5Ac(a2-6)Gal(b1-4)GlcNAc(b1-2)Man(a1-6)]Man(b1-4)GlcNAc(b1-4)GlcNAc
Procedure, shortened: as §1

[34] = molecular target: Neu5Ac(a2-6)Gal(b1-4)GlcNAc(b1-2)Man(a1-6)[Gal(b1-4)GlcNAc(b1-2)Man(a1-3)]Man(b1-4)GlcNAc(b1-4)GlcNAc
Procedure, shortened: as §1

[35] = molecular target: Neu5Ac(a2-6)Gal(b1-4)GlcNAc(b1-2)Man(a1-6)[GlcNAc(b1-2)Man(a1-3)]Man(b1-4)GlcNAc(b1-4)GlcNAc
Procedure, shortened: as §1

[36] = molecular target: Neu5Ac(a2-6)Gal(b1-4)GlcNAc(b1-3)Gal(b1-4)GlcNAc
Procedure, shortened: as §1

[37] = molecular target: Neu5Ac(a2-6)Gal(b1-4)GlcNAc(b1-3)Gal(b1-4)[Fuc(a1-3)]GlcNAc(b1-3)Gal(b1-4)[Fuc(a1-3)]GlcNAc
Procedure, shortened: as §1

[38] = molecular target: Neu5Ac(a2-6)Gal(b1-4)GlcNAc6S
Procedure, shortened: as §1

[39] = molecular target: Neu5Ac(a2-6)GalNAc
Procedure, shortened: as §1

[40] = molecular target: Neu5Ac(a2-6)GalNAc(b1-4)GlcNAc
Procedure, shortened: as §1

[41] = molecular target: Neu5Ac(a2-8)Neu5Ac
Procedure, shortened: as §1

[42] = molecular target: Neu5Ac(a2-8)Neu5Ac(a2-3)Gal(b1-4)Glc
Procedure, shortened: as §1

[43] = molecular target: Neu5Ac(a2-8)Neu5Ac(a2-3)[GalNAc(b1-4)]Gal(b1-4)Glc
Procedure, shortened: as §1

[44] = molecular target: Neu5Ac(a2-8)Neu5Ac(a2-8)Neu5Ac
Procedure, shortened: as §1

[45] = molecular target: Neu5Ac(a2-8)Neu5Ac(a2-8)Neu5Ac(a2-3)Gal(b1-4)Glc
Procedure, shortened: as §1

[46] = molecular target: Neu5Ac(a2-8)Neu5Ac(a2-8)Neu5Ac(a2-3)[GalNAc(b1-4)]Gal(b1-4)Glc
Procedure, shortened: as §1

[47] = molecular target: Neu5Ac(a2-8)Neu5Ac(a2-8)Neu5Ac(a2-8)Neu5Ac(a2-3)[GalNAc(b1-4)]Gal(b1-4)Glc
Procedure, shortened: as §1

[48] = molecular target: Neu5Ac(b1-6)GalNAc
Procedure, shortened: as §1

[49] = molecular target: Neu5Ac(b2-6)Gal(b1-4)GlcNAc
Procedure, shortened: as §1

[50] = molecular target: Neu5Ac(b2-6)GalNAc
Procedure, shortened: as §1

[51] = molecular target: Neu5Ac9Ac(a2-6)Gal(b1-4)GlcNAc
Procedure, shortened: as §1

[52] = molecular target: Neu5Gc(a2-3)Gal(b1-3)GlcNAc
Procedure, shortened: as §1

[53] = molecular target: Neu5Gc(a2-3)Gal(b1-3)[Fuc(a1-4)]GlcNAc
Procedure, shortened: as §1

[54] = molecular target: Neu5Gc(a2-3)Gal(b1-4)Glc
Procedure, shortened: as §1

[55] = molecular target: Neu5Gc(a2-3)Gal(b1-4)GlcNAc
Procedure, shortened: as §1

[56] = molecular target: Neu5Gc(a2-3)Gal(b1-4)[Fuc(a1-3)]GlcNAc
Procedure, shortened: as §1

[57] = molecular target: Neu5Gc(a2-3)Gal(b1-4)[Fuc(a1-4)]GlcNAc
Procedure, shortened: as §1

[58] = molecular target: Neu5Gc(a2-6)Gal(b1-4)GlcNAc
Procedure, shortened: as §1

[59] = molecular target: Neu5Gc(a2-6)GalNAc
Procedure, shortened: as §1

[60] = molecular target: Neu5Gc(b2-6)Gal(b1-4)GlcNAc
Procedure, shortened: as §1

B1: NcCVNHO (Neurospora crassa), Q7S6U4 (protein)
chain: MSFHVTAEDARIEVRDNRTILFARLRREDGEWNDASYELDQIIGNNDGHFQWGGQNFTETAEDIRFHPKEGAAEQPILRARLRDCNGEFHDRDVNLTEIVENVNGEFQAKF
- glycan array binding signal (z-score) [1]: -0.196
- glycan array binding signal (z-score) [2]: 0.907
- glycan array binding signal (z-score) [3]: -0.24
- glycan array binding signal (z-score) [4]: -0.182
- glycan array binding signal (z-score) [5]: -0.299
- glycan array binding signal (z-score) [6]: -0.143
- glycan array binding signal (z-score) [7]: -0.127
- glycan array binding signal (z-score) [8]: -0.237
- glycan array binding signal (z-score) [9]: -0.227
- glycan array binding signal (z-score) [10]: -0.212
- glycan array binding signal (z-score) [11]: -0.173
- glycan array binding signal (z-score) [12]: -0.195
- glycan array binding signal (z-score) [13]: -0.186
- glycan array binding signal (z-score) [14]: -0.227
- glycan array binding signal (z-score) [15]: -0.241
- glycan array binding signal (z-score) [16]: -0.206
- glycan array binding signal (z-score) [17]: -0.194
- glycan array binding signal (z-score) [18]: -0.172
- glycan array binding signal (z-score) [19]: -0.231
- glycan array binding signal (z-score) [20]: -0.237
- glycan array binding signal (z-score) [21]: -0.229
- glycan array binding signal (z-score) [22]: -0.238
- glycan array binding signal (z-score) [23]: -0.239
- glycan array binding signal (z-score) [24]: -0.249
- glycan array binding signal (z-score) [25]: -0.236
- glycan array binding signal (z-score) [26]: -0.242
- glycan array binding signal (z-score) [27]: -0.265
- glycan array binding signal (z-score) [28]: -0.227
- glycan array binding signal (z-score) [29]: -0.209
- glycan array binding signal (z-score) [30]: -0.192
- glycan array binding signal (z-score) [31]: -0.194
- glycan array binding signal (z-score) [32]: -0.154
- glycan array binding signal (z-score) [33]: -0.16
- glycan array binding signal (z-score) [34]: -0.156
- glycan array binding signal (z-score) [35]: -0.166
- glycan array binding signal (z-score) [36]: -0.232
- glycan array binding signal (z-score) [37]: -0.171
- glycan array binding signal (z-score) [38]: -0.131
- glycan array binding signal (z-score) [39]: -0.229
- glycan array binding signal (z-score) [40]: -0.233
- glycan array binding signal (z-score) [41]: -0.207
- glycan array binding signal (z-score) [42]: -0.192
- glycan array binding signal (z-score) [43]: -0.222
- glycan array binding signal (z-score) [44]: -0.242
- glycan array binding signal (z-score) [45]: -0.241
- glycan array binding signal (z-score) [46]: -0.24
- glycan array binding signal (z-score) [47]: -0.228
- glycan array binding signal (z-score) [48]: -0.301
- glycan array binding signal (z-score) [49]: -0.253
- glycan array binding signal (z-score) [50]: -0.194
- glycan array binding signal (z-score) [51]: -0.232
- glycan array binding signal (z-score) [52]: -0.241
- glycan array binding signal (z-score) [53]: -0.234
- glycan array binding signal (z-score) [54]: -0.22
- glycan array binding signal (z-score) [55]: -0.235
- glycan array binding signal (z-score) [56]: -0.26
- glycan array binding signal (z-score) [57]: -0.153
- glycan array binding signal (z-score) [58]: -0.243
- glycan array binding signal (z-score) [59]: -0.19
- glycan array binding signal (z-score) [60]: -0.169
